The full ranking holds about 110,000 compounds; the median of “z-score” is about -0.1, and the highest 2% start at about 2. Some of the results follow. Active and inactive are the calls of the source.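 How the source made its calls: active means z-score in the third read window above 3 or below -3; inactive means the rest.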
The compounds below were run against Metabotropic glutamate receptor 8 (Rattus norvegicus) (UniProt P70579) (assay: rat mGluR8 modulators via GIRK flux, primary screen, cell-based, thallium flux, HTS (AID 488969)). Details: HEK293 rat mGluR8, GIRK (G protein-gated inwardly rectifying potassium channel) thallium flux, FluoZin2; at 10 µM; stronger effect = higher value; submaximal glutamate (EC20) added with thallium.
UniProt P70579, sequence (P70579 whole entry, looked up): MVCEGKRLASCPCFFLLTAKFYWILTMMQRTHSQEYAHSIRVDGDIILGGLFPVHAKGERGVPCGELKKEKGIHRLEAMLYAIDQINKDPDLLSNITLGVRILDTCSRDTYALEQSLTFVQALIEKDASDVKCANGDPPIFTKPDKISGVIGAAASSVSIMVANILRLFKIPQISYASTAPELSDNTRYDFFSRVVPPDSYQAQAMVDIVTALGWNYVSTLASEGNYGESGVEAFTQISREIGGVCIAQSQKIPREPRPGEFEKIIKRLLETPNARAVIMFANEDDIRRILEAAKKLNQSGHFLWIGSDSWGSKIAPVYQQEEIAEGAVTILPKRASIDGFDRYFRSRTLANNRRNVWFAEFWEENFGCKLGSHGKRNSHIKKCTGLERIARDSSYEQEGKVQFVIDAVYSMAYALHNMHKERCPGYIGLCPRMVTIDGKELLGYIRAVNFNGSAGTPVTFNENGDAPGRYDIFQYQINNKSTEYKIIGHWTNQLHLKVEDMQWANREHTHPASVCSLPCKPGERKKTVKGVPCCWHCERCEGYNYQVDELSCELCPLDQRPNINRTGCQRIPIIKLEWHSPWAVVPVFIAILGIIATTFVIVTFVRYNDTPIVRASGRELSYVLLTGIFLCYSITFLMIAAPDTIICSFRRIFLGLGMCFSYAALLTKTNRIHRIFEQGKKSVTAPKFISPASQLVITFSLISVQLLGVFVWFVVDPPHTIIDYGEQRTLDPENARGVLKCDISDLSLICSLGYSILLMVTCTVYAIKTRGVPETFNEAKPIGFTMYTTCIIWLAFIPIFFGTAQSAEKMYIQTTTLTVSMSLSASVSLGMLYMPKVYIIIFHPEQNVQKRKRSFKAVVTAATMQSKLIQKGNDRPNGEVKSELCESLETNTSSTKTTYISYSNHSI

Row | SMILES | z-score
1 | CCN(CC)CCn1nc(C)nc1-c1ccccc1O | -0.149
2 | COc1ccc(C(=O)c2c(C)c3cc(C)ccc3n2CC(O)CN2CCOCC2)cc1 (configuration not stated) | -0.197
3 | O=C(c1ccco1)N1CCN(C(=O)c2nn3cccnc3c2Cl)CC1 | -0.0636
4 | Cc1ccnc2nc(C(=O)NCCc3ccc(F)cc3)nn12 | 0.504
5 | COc1cc(C(=O)Oc2cccc(Nc3ncnc4ccccc34)c2)cc(OC)c1OC | -1.17
6 | O=C(c1ccc(CNS(=O)(=O)c2ccccc2)cc1)N1CCN(c2ccccn2)CC1 | -0.194
7 | CC(=O)c1ccc2c3c(ccc(O)c13)CC2 | 0.635
8 | N#Cc1c(N)n(C2CCCCC2)c2nc3ccccc3nc12 | -0.276
9 | COc1cccc(OCc2nnc(SCC(=O)NCc3ccco3)n2C)c1 | 1.17
10 | CC(C)Cn1c(N)c(C(=O)NCCN2CCOCC2)c2nc3ccccc3nc21 | -0.402
11 | COCCNC(=O)c1onc(CSc2cccc(OC)c2)c1C(=O)O | -0.0826
12 | CCOC(=O)c1c(NC(=O)CSc2nnc(-c3cccnc3)o2)sc2c1CCC2 | -1.11
13 | O=c1ccc(Cl)cn1Cc1ccccc1F | -0.462
14 | Cc1cc2cc(C(c3nnnn3Cc3ccccc3)N3CCc4ccccc43)c(=O)[nH]c2cc1C (configuration not stated) | -0.423
15 | COc1ccc(CNC(=O)c2cc(-n3cnnc3)ccc2Cl)cc1 | 0.0981
16 | O=C1C2C3C=CC(C3)C2C(=O)N1c1n[nH]c(-c2ccccc2)n1 (configuration not stated) | -0.411
17 | COC(=O)CCC(=O)NC(=S)Nc1cc(Cl)ccc1Cl | 0.575
18 | Cc1c(/C(O)=C2/C(=O)C(=O)N(CCN3CCOCC3)C2c2cccs2)cnn1-c1ccccc1 (configuration not stated) | 0.079
19 | CCN1C(=O)C2(SC(NC(C)=O)=NN2C(C)=O)c2cc(C)cc(C)c21 (configuration not stated) | -0.0694
20 | NC1=NC2(CCCCCC2)n2c(nc3ccccc32)N1 | 0.257
21 | CCOc1cc2[nH]c(=O)n(CCC(=O)NCCc3ccccc3)c(=O)c2cc1OCC | -0.0517
22 | Cc1cccc(C(C)(C)C)c1OCCn1ccnc1 | 0.642
23 | Clc1ccc(N2N=C(c3cccs3)CC2c2ccco2)cc1 (configuration not stated) | -0.162

Row | SMILES | z-score
24 | CCCC(=O)N1CCN(c2nc(CC(C)C)c3c(c2C#N)CCC3)CC1 | -0.0696
25 | CCOc1ccc2nc(NC3=NC(C)(C)C=C(C)N3)nc(C)c2c1 | 0.871
26 | CCCc1cc(C(F)(F)F)c(C#N)c(=O)[nH]1 | -0.596
27 | CCn1c(SCC(=O)OC2CCCCC2)nnc1-c1ccncc1 | 0.625
28 | Cc1ccc(-c2csc(Cc3nc(-c4cc5ccccc5oc4=O)cs3)n2)cc1 | -0.175
29 | COC(=O)C1CCN(C(=O)COc2ccc(Cl)cc2)CC1 | -0.634
30 | CCOC(=O)c1c(-c2ccc(OC)cc2)csc1NC(=O)CSc1ccccc1 | -0.082
31 | CSc1ncc(Cl)c(C(=O)Nc2nnc(SC/C=C/c3ccccc3)s2)n1 | -0.288
32 | CCOCC(=O)Nc1nc2ccc(C)cc2s1 | -0.0136
33 | O=C(Cn1c(=O)c2c(ncn2Cc2ccccc2)n(Cc2ccccc2)c1=O)N1CCc2ccccc21 | -0.308
34 | Cn1cnc2nc3n(c2c1=O)CCC3 | 0.445
35 | CCOC(=O)c1c(C)nc2sc3c(c2c1-c1ccc(OC)cc1)NC(c1ccccc1)NC3=O (configuration not stated) | -0.0309
36 | COC(=O)CSc1ccc(C#N)c(SCC(=O)OC)c1 | -0.826
37 | CCc1ccc(OCC(=O)NC(=S)Nc2ccc(C)cc2C)c(Br)c1 | 0.275
38 | CC(C)Cn1c(=O)c2ccccc2c2ccccc2c1=O | -0.513
39 | Cc1nn(Cc2ccccc2)c(C)c1/C=N/NC(=O)CNc1cccc(C(F)(F)F)c1 | -0.116
40 | O=C(Nc1ccc2c(c1)OCCO2)c1c(F)cccc1F | -0.197
41 | CCOC(=O)N1CCC(NC(=O)C2CCC(CNS(=O)(=O)c3ccc(OC)cc3)CC2)CC1 (configuration not stated) | -0.392
42 | COc1cccc(Nc2nc(CC(C)=O)ns2)c1 | -0.486
43 | Cc1no[n+]([O-])c1COc1ccc(/C=C(\C#N)C(N)=O)cc1 | -0.17
44 | Cc1ccc2sc(-c3ccc(NC(=O)c4cc(-n5cnnc5)ccc4Cl)cc3)nc2c1 | -0.0244
45 | COc1ccc(NC(=O)c2cccnc2SC)cc1S(=O)(=O)N1CCCCC1 | -0.467
46 | COc1ccc(-c2nnn(Cc3ccccc3F)n2)cc1 | -0.392

Row | SMILES | z-score
47 | CN1c2ccccc2N(C)C1c1c(O)ccc2ccccc12 | 0.11
48 | CCn1c(SCC(=O)Nc2cccc(C(C)=O)c2)nnc1C(C)C | 2.28
49 | O=C(NC1CCCCCC1)C1CCCN(S(=O)(=O)c2cnc[nH]2)C1 (configuration not stated) | 1.59
50 | CC(C)COC(=O)N1CCCC1C(=O)O (configuration not stated) | -0.316
51 | Cc1ccc(CNC(=O)C2CC(c3cccc([N+](=O)[O-])c3)=NO2)cc1 (configuration not stated) | -0.148
52 | CCc1nc2sc3c(=O)n(N)cnc3c2c2c1COC(C)(C)C2 | 0.789
53 | CCc1nnc2sc(-c3cc(-c4ccccc4)nc4ccccc34)nn12 | -0.507
54 | O=C(c1ccc(S(=O)(=O)c2ccc(F)cc2)c([N+](=O)[O-])c1)N1CCCCCC1 | -0.867
55 | O=C1COc2ccc3ccccc3c2CN1 | -0.14
56 | Cc1cccc(C#N)c1NC1=CC(=O)CC(C)(C)C1 | 0.00644
57 | Cn1c(=O)c2c(nc(SCCN3CCCCC3)n2Cc2ccccc2)n(C)c1=O | 0.263
58 | c1ccc2c(c1)OCC(c1nnc3n1-c1ccccc1SC3)O2 (configuration not stated) | -0.661
59 | COCCn1c(=O)[nH]c2cc(C(=O)N3CCN(c4ccccc4OC)CC3)ccc2c1=O | -0.793
60 | CCC(C)(C(=O)NC1CCCC1)N(CC1CCCO1)C(=O)c1ccc2c(c1)OCO2 (configuration not stated) | 0.273
61 | CC(C)Cn1cnc2sc3c(c2c1=N)CCCC3 | active: 3.07
62 | CN1CCS/C1=C/C=C1/SC(=S)N(Cc2ccccc2)C1=O | -0.218
63 | CC(C)CCNC(=O)c1cccc(Cl)c1 | -0.123
64 | O=C(CNS(=O)(=O)c1ccc(F)c(Cl)c1)N1CCCCCC1 | 0.147
65 | COCCn1c(SCC(=O)NNC(=O)c2ccccc2)nc2ccccc2c1=O | -0.311
66 | O=S(=O)(Nc1ccccc1N1CCCCC1)c1ccc(Cl)s1 | active: 3.45
67 | COc1cc(-c2nn3c(Cc4ccccc4)nnc3s2)cc(OC)c1OC | 0.105
68 | Cc1nnc(NC(=O)c2c(-c3ccccc3)noc2C)s1 | -0.27
69 | Cc1ccc(C(=O)Nc2cnc3ccccn3c2=O)cc1 | active: 4.27

Row | SMILES | z-score
70 | Cc1cc(/C=N/NC(=O)c2cccc([N+](=O)[O-])c2)c(C)n1-c1ccc(Cl)cc1Cl | -0.073
71 | O=C(CNC(=S)NC(=O)C1CCCCC1)c1ccccc1 | -0.309
72 | COc1ccc(-c2nc(CS(=O)CC(=O)NCc3ccco3)c(C)o2)cc1OC (configuration not stated) | -0.186
73 | Cn1cc(SCC(N)=O)c2ccccc21 | 0.346
74 | Cc1cccc(C)c1NC(=O)CSc1nnc(-c2ccco2)n1N | 0.0425
75 | CCOC(=O)Cn1nnc(-c2ccc(S(C)(=O)=O)cc2)n1 | -0.322
76 | CCOc1ccc(NC(=O)CSc2nc3ccccc3c(=O)n2Cc2cccs2)cc1 | -0.0117
77 | O=C(NCCCN1CCOCC1)C(Sc1ccccc1)c1ccccc1 (configuration not stated) | -0.146
78 | CCCCn1nnnc1NCc1ccc(OC)c(OC)c1 | -0.0213
79 | Cn1c(C(=O)N2CCN(c3ncccn3)CC2)cc2c(=O)n(C)c3ccccc3c21 | -0.941
80 | CC1CCC(NS(=O)(=O)c2ccc3c(c2)n(C)c(=O)c(=O)n3C)CC1 (configuration not stated) | 0.182
81 | CC(=O)Nc1nc2cc3c(cc2s1)OCO3 | 0.296
82 | NC(=O)c1c(-c2ccc(Cl)cc2Cl)csc1NC(=O)Cc1ccccc1 | -0.416
83 | CN(c1ccccc1)S(=O)(=O)c1cccc(NC(=O)CSc2nncn2C)c1 | -0.203
84 | CCCc1nnc(NC(=O)CCCN2C(=O)c3ccccc3C2=O)s1 | 0.234
85 | Fc1ccc(-c2nc(-c3cccs3)[nH]c2-c2ccc(F)cc2)cc1 | -0.25
86 | Cc1cc(NC(=O)COC(=O)c2ccc(NS(=O)(=O)c3ccc(C)c(C)c3)cc2)no1 | 0.115
87 | COc1ccc(/C(N)=N/OC(=O)Cc2ccc(OC)c(OC)c2)cc1 | -0.0928
88 | COc1cc(NC(=O)COC(=O)/C=C/c2ccccc2Cl)cc(OC)c1 | -0.092
89 | O=C(Cc1cccc2ccccc12)NCCC1=CCCCC1 | 0.134
90 | O=C(c1ccccc1)c1ccc(N2CCNCC2)cc1 | 1.29
91 | CCOc1ccc(NC2c3ccccc3C(=O)N2Cc2ccc3c(c2)OCO3)cc1 (configuration not stated) | -0.187
92 | Cn1cnnc1Sc1nc2c(c(=O)n(C)c(=O)n2C)n1C | 0.104

Row | SMILES | z-score
93 | CSC(=NC(C)c1ccccc1)NS(=O)(=O)c1cccs1 (configuration not stated) | 0.148
94 | O=C(Nc1ccc2oc(-c3cccnc3)nc2c1)c1ccco1 | -0.851
95 | Cc1ccc(S(=O)(=O)N(C)c2ccc(OCC(=O)OCc3c(C)noc3C)cc2)cc1 | -0.694
96 | CCOC(=O)Cc1csc(NS(=O)(=O)c2ccccc2)n1 | -0.205
97 | COC(=O)c1c(NC(=O)CSc2nnnn2C)sc(C)c1C | 0.0868
98 | Cc1ccc(CC2CC(=O)N(c3ccc(Cl)cn3)C2=O)cc1 (configuration not stated) | 0.104
99 | CCCCC(=O)Nc1ccc(C(=O)N2CCN(c3ccccc3OC)CC2)cc1 | -2.33
100 | CCCn1c(SCc2nc(-c3cccs3)no2)nnc1-c1ccncc1 | 0.141
101 | COc1ccc(NC2=C(Cl)C(=O)N(CCc3ccccc3)C2=O)c(OC)c1 | -0.154
102 | O=C(NCC(c1cccnc1)N1CCOCC1)c1ccco1 (configuration not stated) | 0.975
103 | CSc1nnc(-c2ccccc2N=Cc2c(C)[nH]n(-c3ccccc3)c2=O)c(=O)[nH]1 | -0.343
104 | Cc1nnc(SC(C)C(=O)N2CCc3ccccc32)s1 (configuration not stated) | -0.392
105 | CCCCOP(=O)(c1ccc(N(C)C)cc1)C(O)c1cccnc1 (configuration not stated) | 0.0028
106 | CCN(CC)S(=O)(=O)c1cccc(NC(=O)c2cc(=O)[nH]c3ccccc23)c1 | -0.103
107 | CCn1nnc(NC(=O)c2cccc(-c3cc4ccccc4oc3=O)c2)n1 | -0.611
108 | O=S(=O)(c1ccc(Br)cc1)N1CCn2c(nc3ccccc32)C1 | 0.381
109 | O=C1c2ccccc2C(=O)N1CC1c2ccccc2CCN1S(=O)(=O)c1ccccc1 (configuration not stated) | -0.152
110 | COc1ccc(NC(=O)c2oc3ccccc3c2C)c(OC)c1 | 0.0133
111 | COc1cc2cc(C(c3nnnn3C(C)(C)C)N3CCC(C)CC3)c(=O)[nH]c2cc1OC (configuration not stated) | -0.0379
112 | COCCCNC(=O)CCNS(=O)(=O)c1ccc(C)cc1 | 0.264

Reference: PubChem BioAssay AID488969 (Vanderbilt High Throughput Screening Facility, 2010)
